# Article PMC4336329 (PLoS ONE, 2015)
# In all, about 310,000 compounds went through this assay and about 14,000 (4.5%) showed an effect of 50% or more. Effects have a minus sign here. The list shows a part of the results.
# Molecular target: human ether-à-go-go-related gene (hERG) potassium channel (human, UniProt Q12809)
# Test: primary screen, population patch clamp on CHO cells stably expressing hERG
# 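Note: peak tail current of the secondary pulse compared with the same well before compound.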
# Sequence of human ether-à-go-go-related gene (hERG) potassium channel (Q12809 whole entry, looked up): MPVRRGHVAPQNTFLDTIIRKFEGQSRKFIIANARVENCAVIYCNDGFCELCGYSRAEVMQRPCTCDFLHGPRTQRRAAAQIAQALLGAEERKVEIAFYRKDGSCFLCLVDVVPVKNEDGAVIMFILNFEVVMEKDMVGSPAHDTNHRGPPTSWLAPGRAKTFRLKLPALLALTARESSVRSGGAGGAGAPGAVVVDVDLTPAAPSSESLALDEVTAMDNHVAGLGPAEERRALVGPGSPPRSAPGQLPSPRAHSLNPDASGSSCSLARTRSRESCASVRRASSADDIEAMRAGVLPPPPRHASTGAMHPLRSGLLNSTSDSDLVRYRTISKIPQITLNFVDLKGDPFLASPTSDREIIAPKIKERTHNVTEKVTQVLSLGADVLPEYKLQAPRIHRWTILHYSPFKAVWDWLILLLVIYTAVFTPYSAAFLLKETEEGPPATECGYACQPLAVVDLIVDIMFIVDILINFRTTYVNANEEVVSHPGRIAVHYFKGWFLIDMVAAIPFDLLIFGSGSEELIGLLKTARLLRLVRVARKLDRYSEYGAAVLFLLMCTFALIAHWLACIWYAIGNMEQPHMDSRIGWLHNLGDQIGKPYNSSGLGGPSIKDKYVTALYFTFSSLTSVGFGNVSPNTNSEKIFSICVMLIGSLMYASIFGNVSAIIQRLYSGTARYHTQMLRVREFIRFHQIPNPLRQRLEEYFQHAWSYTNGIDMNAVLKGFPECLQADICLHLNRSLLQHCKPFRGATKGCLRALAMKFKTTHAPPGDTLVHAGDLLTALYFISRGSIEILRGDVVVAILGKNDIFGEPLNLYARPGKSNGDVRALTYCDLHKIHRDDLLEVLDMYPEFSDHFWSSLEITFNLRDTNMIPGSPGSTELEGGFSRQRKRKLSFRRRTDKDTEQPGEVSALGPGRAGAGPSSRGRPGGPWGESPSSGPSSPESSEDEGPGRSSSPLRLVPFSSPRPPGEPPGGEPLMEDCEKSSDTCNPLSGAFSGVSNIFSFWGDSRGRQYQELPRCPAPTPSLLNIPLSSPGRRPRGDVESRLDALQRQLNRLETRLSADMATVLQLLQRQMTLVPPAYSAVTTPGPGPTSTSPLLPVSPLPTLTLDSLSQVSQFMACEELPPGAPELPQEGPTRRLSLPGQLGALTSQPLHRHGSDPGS
row,Structure (SMILES),"hERG current change (%, negative = inhibition) at 10uM"
1,COC(=O)COc1cccc(NC(=O)c2cccs2)c1,2.46%
2,Cc1ccc(OCc2nnc(SCC(=O)c3cccs3)n2-c2ccccc2)cc1C,11%
3,CCOc1cc(C(=O)Nc2ccc(C)cc2O)ccc1OCC(=O)N1CCOCC1,-13.2%
4,COc1ccccc1C1CCN(c2ccc([N+](=O)[O-])c(OC)c2)CC1,-8%
5,CN1C(=O)C(/C(N)=N/NC(=O)c2ccccc2)C2CC1(C)Oc1ccccc12 (centres unmarked),17.1%
6,Cc1ccc(C)c(NS(=O)(=O)c2ccc(-c3ccc(=O)[nH]n3)o2)c1,3.23%
7,CC(=O)Nc1ccc(NC(=O)c2ccc(S(=O)(=O)N(C)c3ccccc3)cc2)cc1,15.2%
8,O=C(NC(Nc1nc2ccc([N+](=O)[O-])cc2s1)(C(F)(F)F)C(F)(F)F)c1ccccc1Cl,-23.1%
9,O=C(Cn1nc(CNc2ccc(Br)cc2)[n+]2c1CCCCC2)c1ccc([N+](=O)[O-])cc1.[Br-],-19.6%
10,COC(=O)c1c(C)[nH]c(O)c1C=Nc1ccc(C#N)cc1,-13.4%
11,COc1cc(/C=N/n2cnnc2)ccc1OCCOc1ccccc1,-3.33%
12,O=C(CCn1cnnn1)N1CCCC(Nc2ccc(F)c(F)c2)C1 (centres unmarked),17.7%
13,C=CCOC(=O)C1=C[C@@H](C2CCCCC2)C[C@@H](OCc2ccc(CO)cc2)O1,3.03%
14,O=C(CN(Cc1ccccc1)S(=O)(=O)c1ccc(Br)cc1)NCc1ccco1,-51.6%
15,Cc1cccc(-c2ncc(CN3CCCC(CO)(Cc4cccc(Cl)c4)C3)cn2)c1 (centres unmarked),-20.6%
16,COc1ccc(S(=O)(=O)N2CCCCC2)cc1NC(=O)CSc1ncccn1,-33.4%
17,CC(C)=C[C@@H]1C[C@H](C)[C@H]2CC[C@H](C)c3c(O)c(O)c(C)c1c32,11.8%
18,CC(=O)c1ccc([C@H]2C[C@@]34CN(C(=O)OC(C)(C)C)S(=O)(=O)[C@H]3C[C@H]2O4)cc1,6.69%
19,CNc1nc2c(c(=O)n(C)c(=O)n2C)n1CCCc1ccccc1,12.7%
20,O=C(Nc1ccc(N2CCOCC2)cc1)c1ccncc1,0.235%
21,CCOc1ccccc1CNCCc1ccc2c(c1)OCO2.Cl,-32.8%
22,OCCC1CN(Cc2cnc(-c3ccccc3)s2)CCN1CCc1ccccc1 (centres unmarked),-71.2%

row,Structure (SMILES),"hERG current change (%, negative = inhibition) at 10uM"
1,COC(=O)c1ccc(C2/C(=C(\O)c3ccc4c(c3)OCCO4)C(=O)C(=O)N2c2nnc(C)s2)cc1 (centres unmarked),9.19%
2,Nc1ccccc1-c1nc2ccccc2c(=O)o1,15.7%
3,Cc1ccc2[nH]c(=O)c(CN(CCCO)S(=O)(=O)c3cccc4nsnc34)cc2c1,-38.1%
4,COc1ccc(OC)c(S(=O)(=O)Nc2c(NC3CCCCC3)c3ccccc3oc2=O)c1,-54.1%
5,CSc1nc(N)cc(=O)[nH]1,16.7%
6,Cc1ccc(CN2CCN(Cc3ccccc3-c3ccco3)CC2CCO)o1 (centres unmarked),-22.3%
7,O=S(=O)(Cc1ccccc1Cl)NCCOc1ccccc1,5.09%
8,C(=N\n1cnnc1)/c1nc2ccccc2[nH]1,5.6%
9,O=[N+]([O-])c1cccc(-c2nc(NCc3ccccc3)c3ccccc3n2)c1,5.12%
10,CSc1ncccc1C(=O)OCc1ccccc1F,-4.28%
11,CC(C)C1N(C(N)=S)N=CC1(C)C (centres unmarked),10.7%
12,Cc1cccc(NC(=O)NCCN2C(=O)C3C4C=CC(C4)C3C2=O)c1 (centres unmarked),0.914%
13,CCOC(=O)C(=O)Nc1ccc(S(=O)(=O)Nc2nccs2)cc1,16.8%
14,COc1ccccc1NC(=O)c1cc(S(=O)(=O)N2CCOCC2)ccc1Cl,-13.5%
15,CC(=O)Nc1cccc(NC(=O)C2CCCN2C(=O)Nc2ccc(Cl)cc2)c1 (centres unmarked),-10.8%
16,COC(=O)c1ccc(N2CCOCC2)c(NC(=O)c2ccc3c(c2)OCO3)c1,-1.7%
17,COc1ccc(C(=O)/C(=C\N(C)C)n2nc(C)cc2C)cc1,6.61%
18,CCc1cccc(C)c1NC(=O)CN1C(=O)c2ccccc2S1(=O)=O,-1.52%
19,Cc1nnc(SCC(=O)NNC(=O)C(C)C)[nH]c1=O,3.86%
20,COCCNC(=O)Cn1nc(-c2ccc(C)cc2)ccc1=O,8.83%
21,O=C(NC1CCCC1)c1cccc(S(=O)(=O)N2CCOCC2)c1,3.11%
22,Fc1ccc(/C=N/NC(=S)Nc2ccc(Cl)cc2Cl)cc1,2.42%
